Assay results from the supplement of paper PMC3334620.
Over roughly 33,000 sequences, “E-score (-0.5 to 0.5)” has its median near -0.01; the highest 2% begin near 0.26. Some of the results follow.

biological target: Ste12 (UniProt P13574); assay: PBM E-score (8-mer binding enrichment) (E-score (-0.5 to 0.5)); higher = stronger / more preferred TF binding; most listed sequences are background and not binding sites; settings: protein concentration: 200 nM; construct: GST-DNA-binding domain
In short: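 Bound GST-tagged yeast transcription factors, applied at about 100-200 nM to double-stranded universal all-10-mer Agilent arrays, were detected with fluorescent anti-GST. Scans were normalised with masliner. A modified Wilcoxon-Mann-Whitney statistic, the E-score, was assigned to each ungapped eight-base word pooled with its reverse complement by the Universal PBM Analysis Suite.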

Sequence | PBM E-score
ACTGGAAA | 0.143
CACTGGAA | -0.101
GACAAGCA | -0.203
ATTCTTTC | 0.155
GAGCGAGA | 0.187
AAGCTCGT | -0.195
ACATTAGG | -0.034
GGCCTGAC | -0.0732
CTTGACAA | 0.0222
GAGGCGAA | 0.0755
CGAGGGTC | -0.0723
AATTTGCG | 0.144
GCTGTACA | -0.112
GAACATTC | -0.00441
ATGTGGGA | -0.0289
TACATTAA | 0.209
AGATTTAG | 0.162
CTCTTGTC | -0.117
GCGGGCCA | 0.00189
ATGGCCAA | -0.194
GTGTAATA | 0.0454
CCACCGAA | -0.0889
ATTCATGA | 0.138
ATCAAAGG | 0.164
ATGAGACC | -0.144

Sequence | PBM E-score
CAAGGGCA | -0.073
ACGCCATC | 0.122
AATTATCC | 0.162
ACATGGTA | -0.148
AACAGAAA | 0.311
ACGATGGC | -0.0621
CGTCTTGA | 0.113
GCAGGAAC | -0.192
CTATGACA | 0.0957
ATACATGC | 0.00188
CGCGTTCA | 0.129
CATGCCGG | 0.191
GTACAACA | 0.00343
GTACACAA | -0.00405
CTCGTTGC | 0.121
CCATTATA | 0.217
ATGGTTTA | 0.101
TGTGTTAA | 0.0922
AGCGAGGG | -0.0603
AGTGCGAC | -0.0819
CGAAAGAA | 0.112
ACCCGAGG | -0.0292
TACTGGGA | 0.0965
ATGACGAG | -0.185
ATAAATGG | 0.139

Sequence | PBM E-score
CGGGATTA | 0.196
ACGGACTC | -0.131
GCAACCCC | -0.0411
ACTGAGAA | 0.00854
GCTCTTTA | -0.0234
ACATTTAT | 0.111
AAACGGTA | 0.151
CTCTCTGC | -0.0275
ACCCACGT | -0.0511
ATCGTCAA | 0.016
CACCTTAG | -0.18
ATCGTTGA | 0.055
AGCATTAG | -0.126
CAAACCCA | 0.262
GAGCGACC | -0.171
CTAAGAAG | 0.0268
CACTCCCG | -0.0749
CGGACAAG | -0.0812
GAAATGTC | -0.122
AAGATTGA | 0.0987
AGTAAATC | 0.16
GGATAAGA | 0.0906
AACACGCC | -0.0359
GAATAGTA | -0.0864
CGTATCCA | -0.225

Sequence | PBM E-score
AGTCATAG | 0.0104
TAAGAGAA | -0.097
TGAACACA | 0.0641
GATGGCTA | -0.15
GATGAACC | 0.062
ATAGTCCG | -0.0803
GATGGGCC | -0.117
CGAACAAC | 0.125
ATAATACA | 0.318
CGTCAGCC | 0.0524
AAAGACAC | 0.115
ATACTACC | -0.089
CAGCCAAG | -0.152
AACTGGGG | 0.0456
ATGTAACG | 0.241
AGGCTAGC | -0.231
AGTTCTAG | -0.0429
CCCTTTCG | -0.104
AACTTCAC | 0.0728
AGAACTTA | -0.0376
GTTAGAGA | -0.066
AATTCCCA | 0.0396
CTCTACTC | -0.129
AAACTAGA | 0.195
ACCTAGGG | -0.145

Sequence | PBM E-score
AGACCATG | 0.0174
CTTTCGAA | 0.0433
ATAGGTAC | -0.12
ACCCTTAG | -0.19
TATTCAGA | 0.029
ATCGTTCC | -0.229
AGCGTCTG | -0.149
AGATGGTA | -0.0201
CAAGGGAC | -0.244
CACGGGTA | -0.101
AAACGTAA | 0.202
ATATCACA | 0.0445
GCGGGACA | 0.0851
AGTTACAT | 0.0745
CGTGGCGC | -0.1
CTGCTAAA | 0.0382
TCACTACA | 0.127
CCCCCTAA | -0.251
AAAGTCAC | 0.071
CCACATAG | -0.109
AAAGGATG | 0.032
AAAAAGCA | 0.108
GAGTTCAC | -0.13
TACCAATA | -0.107
CGCTCGAC | -0.0877

Sequence | PBM E-score
TCGGATCA | 0.191
CTCCTGAC | -0.0416
CAGGTATG | 0.0422
AGTATTGG | -0.0255
ACCGTGCT | -0.08
GGACCGCC | -0.112
AAACGAAT | 0.106
AGAACGAC | 0.0693
CAGTAAGG | -0.0592
CTTAGCGC | 0.187
CGTATCAG | 0.105
AGAATCGA | 0.0476
ACGCCTAG | -0.0242
AAACGGTT | 0.138
CGGGTCAC | 0.00395
GTCGGTCA | -0.229
CACGAGAC | -0.00237
CCGAACTA | 0.0133
ATTCAGAG | 0.0638
AACTTGGT | -0.0649
AGACTGAA | 0.0655
CCCGTTCG | -0.0295
ACCTCCAT | -0.0171
AAAGTCCG | -0.145
TAGATTCA | -0.0579

Sequence | PBM E-score
ATCCAGCC | -0.0107
CTTATGTA | 0.0688
TAACGTAA | 0.191
ACACGCGA | -0.0426
CCCGGACA | 0.073
CGGACAGA | -0.116
GTGCCGTA | -0.15
GGTACGCA | -0.124
GTGCGTCA | -0.139
CAACTAGC | 0.0562
CTTTTAAC | 0.0424
CTCTCAGA | -0.0714
ACTCGTGG | -0.103
CAGATAAC | -0.0355
AATATGAC | 0.0945
CCTATTAA | 0.00994
ACCGTTAG | -0.196
AGCCAATG | -0.147
GTGTCGTA | 0.0677
ACCGGTAA | 0.0469
AATTATTG | 0.16
GAGGAGGA | -0.0989
CCCTGCCG | -0.05
AAACAACC | 0.277
GTTAGAAA | 0.0643

Sequence | PBM E-score
AAAGAGTT | 0.0105
CCGCCAAC | -0.00677
GTGAGAAA | 0.189
CCACGGGG | -0.195
ATTTCTGC | 0.0881
CTTAAGCA | 0.0722
AGAGAGGA | -0.0863
GCCGTACA | -0.0834
CCCGCATA | 0.198
ACTTAGCG | 0.0815
AGGCAAAC | 0.00641
ATCACCAC | 0.0123
ATAAGGGC | -0.141
CACCGCTC | 0.089
GTCGAACA | 0.103
ACTTTGAA | 0.2
CAGTAGTC | -0.0734
ATGATATG | 0.0998
CAGAGAGG | -0.0742
GGAGTGAC | 0.0133
CCTTCTCG | -0.152
GTGCACGA | 0.0747
GCGGAAAA | 0.253
GCAAGGAC | -0.256
GCACCTGA | 0.0667

Sequence | PBM E-score
AAGACAAC | 0.0377
ACACAGTA | 0.143
ATTTGACC | 0.0785
AAGTCTAG | -0.109
ACCATGAC | -0.0636
AACGATGG | 0.0516
ACAGAACT | 0.203
ACCCTGAT | -0.0303
AGATGAGA | 0.0215
AATCTAAA | 0.191
CTGATATC | 0.11
CTGCACAA | -0.0847
CAACCGAC | 0.0141
AGCACACA | -0.114
AGGATCTC | -0.161
AAACACTC | 0.288
AGGAGTCC | -0.174
ATGGGTGC | 0.0284
CTTCGTGA | 0.00137
CCGAGTTA | -0.0289
ATCATCCG | -0.034
TCGGCACA | -0.094
GACGGCCC | -0.16
ACCCGGCT | 0.0608
CTGTTCCA | -0.0105

Sequence | PBM E-score
AAGCAGGC | -0.228
TCTGCACA | 0.066
GACTGTTA | -0.0718
GAAATCTC | -0.109
GGCCGTCA | 0.00666
ATTGACTA | 0.154
CCAGGGAG | -0.199
CTCTTGGA | -0.0611
CCTGCGCG | -0.139
CCGCCTCA | -0.0226
AGAAGGGG | -0.128
CATCCTTA | -0.0117
ACATTCAC | 0.205
ACGTTAAC | -0.0588
CGAAGATA | 0.237
GTCTCCCA | -0.2
ATTTGATG | 0.126
ACGCTCTG | -0.106
CCACCATA | 0.143
ACCAACCC | -0.186
CGCGCCGC | 0.142
CATGGACG | -0.117
CTGTGCCA | 0.0264
CGCTCCCG | -0.0785
ACGTCGGA | -0.0246

Sequence | PBM E-score
ACAGCTGA | -0.0336
AGAATTAT | 0.145
AAGTCACC | -0.0787
CTAAGCTA | 0.0984
AACGCGTG | 0.104
CTTCCTCC | -0.116
AGGTTCAG | -0.107
CTTAAAAA | 0.22
GGAGCTGA | -0.167
ACTGCTCC | -0.108
AGTCGGGC | -0.00532
GAATGGAA | 0.0462
GGATCGGA | -0.0609
CCTCCGAG | -0.00323
TGCAAGAA | 0.217
GATGGTCA | -0.187
AAATCAGG | 0.0787
CCAGAGGA | -0.0683
ACACGAGG | -0.185
CCGAACGC | 0.111
AAGGGTAA | 0.0708
CGAAATCG | 0.0722
CTTAGATC | -0.0476
CTGAACAA | 0.0423
CGGCCAGA | 0.11

Sequence | PBM E-score
ACTGTATG | 0.111
GGTGACTA | -0.014
CCTGATGC | -0.0515
AACCCATT | 0.137
ACGGCTAG | -0.175
AGGTGACG | -0.0406
AAGAGTCG | -0.029
CCCGAGAA | -0.059
ATTGAACA | -0.184
ATACCCAG | -0.212
CAATATAA | 0.316
TGCGAGCA | 0.0352
CGTACGGC | -0.295
ATATAACG | 0.117
CACGTCAC | -0.0135
GGGATCCA | -0.0636
CGTGTAGA | -0.17
CGCAGGCC | -0.0991
CGAAGCCC | -0.192
GGCCACAA | 0.0783
AAGCAGTG | 0.0293
GAAACGGA | 0.343
ATTGTCGC | -0.0604
ATATGAGG | 0.119
CGCAGCGA | 0.0229

Sequence | PBM E-score
CGCGCGTC | 0.0795
CCCCGCAG | -0.0523
CCTCTATA | -0.181
ACGAAAAA | 0.193
CGGCTAAG | 0.0459
AAAGCTAG | -0.136
CTCGAGGC | 0.0437
CCGGCACG | 0.0757
GGGTCCCA | -0.198
CGTTCGAG | 0.0395
ACCACGGC | 0.0716
CGACGACA | -0.141
AGGAGTCA | -0.0486
GGAAGAAC | 0.145
AATGTCGA | 0.0998
CGATTGAG | -0.0934
ACTATGAG | 0.0271
GAATTATA | 0.0936
CTACTACA | 0.0777
CAACAGTG | 0.104
ACACCCCA | 0.111
TCTGTTCA | 0.116
CTATAGGA | -0.0736
ATCCTCCA | -0.0976
ACGACTAC | -0.16

Sequence | PBM E-score
GCTGTGAC | 0.0498
CCGCCTCG | 0.0814
AGGTTGTA | -0.0118
ACCCACGG | -0.198
ACGTGGCA | -0.00588
AAATGCGA | 0.137
CGGGCTTC | -0.213
ACAGGAAC | -0.22
TTCATAAA | 0.324
GGCGACGA | -0.183
AGTGTCGA | 0.0108
GACTTATA | 0.108
GCATTGTA | 0.00828
ATCTCGGA | 0.112
ACACTACG | 0.0597
CAATTGTC | 0.00294
CACGAAAC | 0.266
GGCAAAAC | 0.133
CCGTGCCA | -0.0583
